# Among all 420,000 compounds or so, about 50,000 (12%) were called active. This list was built around the results that the source calls inconclusive (neither active nor inactive); the mix of calls is not that of the screen. The call rests on the fitted dose curve; in most records, active means well fitted inhibition curve with a large enough effect; inconclusive means small, poorly fitted or top-dose-only effect; inactive means flat fitted curve, though single readings scatter. No potency is given beside an inconclusive call; the fits are too rough.
# Assay: qHTS for Inhibitors of human tyrosyl-DNA phosphodiesterase 1 (TDP1): qHTS in cells in presence of CPT; further: nearly all actives have a fitted effect of over 55% in size
# Conditions: chicken DT40 Tdp1-/-;hTDP1 cells + 20 nM CPT, ATP luminescence, 48 h; activity change, negative = growth inhibition: at 46.2 µM (top of the series) unless noted
# How it was run: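 Cell growth measured by CellTiter-Glo luminescence after a minimum 48 h, 37 C compound exposure with 20 nM CPT in Tdp1-knockout DT40 cells stably expressing hTDP1, seeded 400/well; qHTS titration format.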
# On the % scale 0 is the no-effect control and ±100 the full control effect; potency means the concentration at half of the fitted maximal effect; tags describe the fitted curve by direction and shape.
Structure (SMILES),Potency,"activity change, negative = growth inhibition"
Nc1sc(-c2ccccc2)cc1C(=O)NCCc1ccc(Cl)cc1,active: 23.1 µM,
COC(CNC(=O)CCc1c(C)nc2c(c(C)nn2-c2ccc(C)cc2)c1C)OC,"inconclusive [inhibitor, partial curve]",
COc1ccc(Br)cc1CN(C)C(C)C(=O)Nc1cccc(C(C)=O)c1 (centres undefined),"inconclusive [inhibitor, single point]",
C/C(=N/NC(=O)c1ccc(Br)o1)c1cccc(NC(=O)c2ccc(C)o2)c1,active: 16.4 µM,
CC[C@@]12C(=O)N(c3cccc(Br)c3)C(=O)N1[C@H](c1ccc(F)cc1)[C@@H]1C(=O)N(C3CCCCC3)C(=O)[C@@H]12,"inconclusive [inhibitor, single point]",
CNS(=O)(=O)c1cccc(C(=O)OCC(=O)c2ccc3[nH]c(=O)[nH]c3c2)c1,"inconclusive [inhibitor, single point]",
Cc1ccc(NC(=O)NCCc2c(C)nn(C)c2C)cc1Cl,"inconclusive [inhibitor, partial curve, poor fit]",
O=C(C[n+]1csc2ccccc21)c1ccc(O)c(O)c1,"inconclusive [inhibitor, single point]",
O=c1cc(-c2ccccc2Cl)oc2c([N+](=O)[O-])c(O)cc(O)c12,active: 23.1 µM,
Cc1ccccc1-c1nnc(SCc2ccccc2)o1,,inactive: -7.09%
Cc1ccc(S(=O)(=O)N2CCN(C(=O)CC(C)n3nc(C)c(Cl)c3C)CC2)cc1C (centres undefined),"inconclusive [inhibitor, single point]",
CC(C)C(=O)N[C@@H]1c2ccccc2CC[C@H]1OCc1ccccc1,"inconclusive [inhibitor, single point]",
O=C(c1ccoc1)N1CCN(c2cc(-c3ccco3)nc3cc(-c4ccccc4)nn23)CC1,active: 8.2 µM,
COc1ccc(-c2csc3ncnc(N4CCN(c5ccccc5O)CC4)c23)cc1,"inconclusive [inhibitor, single point]",
CCCOc1ccc(C=Nc2ccc(OC)c(S(=O)(=O)N3CCOCC3)c2)c(O)c1,,inactive: -6.34%
COc1ccc(S(=O)(=O)N2CCN(c3ccccc3)CC2)cc1OC,,inactive: 9.2%
CC(C)C[C@@H](CNCC(=O)[C@H](Cc1ccccc1)NC(=O)c1[nH]cnc1C(=O)N[C@@H](C)CN)NC(=O)c1nc[nH]c1C(=O)N[C@@H](C)C(=O)O,,inactive: 1.76%
CCCCCCn1c(=O)n2n(c1=O)[C@@H]1CN(S(=O)(=O)c3ccc(C)cc3)C[C@]1(O)[C@@H](OC(=O)Nc1cccs1)C2,active: 23.1 µM,
CCOc1ccccc1NC(=O)COC(=O)CN1C(=O)NC(C)(C)C1=O,,inactive: -16%
CCOC(=O)C1=C(C)NC2=C(C(=O)c3ccccc32)C1c1cccc2ccccc12 (centres undefined),"inconclusive [inhibitor, single point]",
O=C(O)C1CC=CCC1C(=O)NC1CCCCC1 (centres undefined),,inactive: -7.21%
COc1ccc(CCCc2nnc(SCc3nc4ccccc4c(=O)[nH]3)n2C)c(C)c1,,inactive: -25.2%
Oc1ccc2c(c1)oc1cc(O)ccc12,"inconclusive [inhibitor, single point]",
Cc1c(NC(=O)c2cc(-c3ccccc3)nc3ccccc23)c(=O)n(-c2ccccc2)n1C,"inconclusive [inhibitor, partial curve, poor fit]",
Cc1ccc(C(=O)N/C(=C\c2cccs2)C(=O)NC2CCCCC2)cc1,"inconclusive [inhibitor, single point]",

Structure (SMILES),Potency,"activity change, negative = growth inhibition"
CC(C)NC(=O)C1(C)CSCC(=O)N1Cc1cccs1 (centres undefined),,inactive: 24.9%
COC(=O)[C@@H]1CCCN1C(=O)[C@@H](NC(=O)OC(C)(C)C)C(C)C,,inactive: -23.6%
O=C(N/N=C/c1cccc([N+](=O)[O-])c1O)c1cccs1,active: 0.731 µM,
CC1CCN(c2cc(N3CCC(C)CC3)c([N+](=O)[O-])cc2/C=C(\C#N)c2nn(-c3ccccc3)c(N)c2C#N)CC1,"inconclusive [inhibitor, partial curve]",
Cc1cc(CNC(=O)COc2cc(F)ccc2[N+](=O)[O-])c2ccccc2n1,active: 11.6 µM,
Cc1cc(-c2csc(NC(=O)c3ccc(=O)[nH]c3)n2)c(C)n1Cc1ccco1,,inactive: -7.41%
C(=N\N=C\c1cccnc1)/c1cccnc1,"inconclusive [inhibitor, single point]",
Cc1ccc(-c2nnc(N3CCN(C(=O)CSc4ncn[nH]4)CC3)c3ccccc23)cc1,active: 16.4 µM,
Cc1ccc(-c2cc(N)n(-c3ccc(F)cc3)n2)cc1,,inactive: -3.04%
O=c1c(-c2cc3ccccc3o2)[n+]([O-])c2ccccc2n1OCc1ccccn1,"inconclusive [inhibitor, single point]",
CCN1C(=O)C2C(C1=O)N1C(c3cccs3)C3C(=O)N(CC)C(=O)C3N1C2c1cccs1 (centres undefined),,inactive: 4.91%
CCC(=O)NC1=C(Nc2ccc(N)cc2)C(=O)c2ccccc2C1=O,"inconclusive [inhibitor, partial curve]",
CCOC(=O)c1c(NC(=O)C(Sc2ccccc2)c2ccccc2)sc(C(=O)N(C)C)c1C (centres undefined),"inconclusive [inhibitor, single point]",
CCN(CC(=O)NCc1ccc(Cl)cc1)C(=O)CSc1ccc(Br)cc1,"inconclusive [inhibitor, single point]",
CCC[C@@H](CNC)NC[C@H](Cc1ccccc1)NCCCCc1ccccc1,active: 9.2 µM,
CCOC(=O)C1=C(C)NC(C)=C(C(=O)OCCNC(=O)c2cccnc2)C1c1cccc([N+](=O)[O-])c1 (centres undefined),active: 23.1 µM,
CCCS(=O)(=O)N1CCCC(C(=O)N2CCN(c3ccccc3)CC2)C1 (centres undefined),,inactive: -5.02%
CSc1ccccc1C(=O)OCC(=O)NC1CCCCCCC1,,inactive: -26.2%
Cc1cc(C)nc(SCCN2CCCCC2)n1,,inactive: 11.3%
COc1ccc(NC(=O)c2cc(C3CC3)nc3c2c(C)nn3-c2ccccc2)cc1,"inconclusive [inhibitor, single point]",
O=C1CCCN1CCCN1CC(C(=O)N(CCO)Cc2ccccc2)CCC1=O (centres undefined),,inactive: 1.62%
Cc1cn(C2CC(O)C(O)C(CO)O2)c(=O)[nH]c1=O (centres undefined),,inactive: -20.8%
CC(C)CCSc1cc(NCCO)c([N+](=O)[O-])c2nonc12,"inconclusive [inhibitor, single point]",
CCC(=C(c1ccc(OC)cc1)c1ccc(OC)cc1)c1cn(CC(O)CN(CCO)CCO)c2ccccc12 (centres undefined),"inconclusive [inhibitor, single point]",
O=C(Nc1ccc2c(c1)OCCO2)c1cnccn1,,inactive: -10.2%

Structure (SMILES),Potency,"activity change, negative = growth inhibition"
O=C1Nc2ccccc2N=C(c2ccccc2)C1N(C(=O)c1ccnc2ccccc12)c1ccccc1 (centres undefined),"inconclusive [inhibitor, single point]",
Cc1cc(N2CCCCC2)nc2ccc(NC(=O)c3cccc(Cl)c3)cc12,active: 23.1 µM,
Cc1ccc(S(=O)(=O)N2CCC(C(=O)Nc3ccc(N4CCOCC4)cc3)CC2)cc1C,,inactive: -1.87%
COc1ccc(NC(=O)CN(C)C(=O)c2cc3c(cc2Cl)N2CCCCCC2=NS3(=O)=O)cc1,,inactive: 0.854%
O=C1c2cc(CO)cc(O)c2C(=O)c2c(O[C@@H]3OC(CO)[C@@H](O)[C@@H](O)[C@@H]3O)cccc21 (some centres undefined),,inactive: -1.67%
Cc1ccc(-n2ncc3c(N4CCCC(C)C4)ncnc32)c(C)c1 (centres undefined),active: 8.2 µM,
Cc1ccc(CNC(=O)c2ccc(Cn3nc(C)c(Cl)c3C)o2)cc1,"inconclusive [inhibitor, partial curve]",
CC(CCc1ccccc1)NC(=O)C1CCCN(C(=O)c2cc3sccc3n2C)C1 (centres undefined),active: 18.4 µM,
CCOc1ccccc1C(=O)Nc1ccc2nc(N(CC)CC)cc(C)c2c1,active: 20.6 µM,
O=C(Nc1ccccc1N1CCCC1)c1cc(Cl)ccc1Cl,,inactive: -14.5%
Cc1ccc(CNCCC2=CCCCC2)cc1,"inconclusive [inhibitor, single point]",
CC1=C(C)C(c2ccccc2)NC(=S)N1 (centres undefined),"inconclusive [inhibitor, single point]",
Cc1c(Br)cccc1NC(=O)C1(C)CCN1CCc1ccccc1 (centres undefined),"inconclusive [inhibitor, single point]",
Cc1ccc(O)c(-c2cc(C(F)(F)C(F)F)[nH]n2)c1,"inconclusive [inhibitor, single point]",
CCOC(=O)c1nn(-c2ccccc2C)c(=O)cc1OCC(=O)Nc1cccc(OC)c1,,inactive: -22.1%
Cn1c(-c2ccc(F)cc2)cnc1NCc1cc2c(cc1[N+](=O)[O-])OCO2,"inconclusive [inhibitor, single point]",
CC(=O)Oc1cc2c(s1)CCN(C(C(=O)C1CC1)c1ccccc1F)C2 (centres undefined),,inactive: 6.14%
CCCCNC(=O)CCn1nc(-c2ccc(C)cc2)c2ccccc2c1=O,"inconclusive [inhibitor, single point]",
CCc1ccc(-n2c(=O)c3cccnc3n2CC(=O)Nc2cc(F)ccc2F)cc1,active: 2.59 µM,
CCOC(=O)N1CCc2c(sc(NCc3cc(OC)c(OC)cc3OC)c2C(=O)Nc2ccc(OCC)cc2)C1,"inconclusive [inhibitor, single point]",
Cc1ccccc1-c1nc(-c2cccnc2)no1,,inactive: 0.609%
Cc1ccccc1CSCC(=O)N/N=C/c1cccs1,"inconclusive [inhibitor, single point]",
Cc1ccc(SC(=O)c2c([N+](=O)[O-])c(C)nn2C)cc1,active: 18.4 µM,
COc1cccc(N2CCN(C3C4CC5CC(C4)CC3C5)CC2)c1 (centres undefined),"inconclusive [inhibitor, single point]",

# Source: PubChem BioAssay AID686979 (National Center for Advancing Translational Sciences (NCATS), 2013)
